Measurements: patent US20240076345A1 (SUZHOU ALPHAMAB, published 2024)

Target: T1, GLP1R-muFc (human)
T1 construct: also called fusion protein of the GLP-1 receptor and mouse Fc; GLP-1 receptor
T1 chain: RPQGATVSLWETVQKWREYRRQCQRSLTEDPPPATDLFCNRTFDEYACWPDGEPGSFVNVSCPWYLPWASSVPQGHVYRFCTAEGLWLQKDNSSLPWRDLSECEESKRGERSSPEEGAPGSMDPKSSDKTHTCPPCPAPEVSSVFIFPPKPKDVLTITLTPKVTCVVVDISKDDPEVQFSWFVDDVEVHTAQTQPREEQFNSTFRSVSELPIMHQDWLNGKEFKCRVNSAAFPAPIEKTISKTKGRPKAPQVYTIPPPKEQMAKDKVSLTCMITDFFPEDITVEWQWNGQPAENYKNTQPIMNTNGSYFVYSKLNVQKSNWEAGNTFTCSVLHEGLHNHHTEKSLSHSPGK
Assay: ELISA on coated GLP1R-muFc
Method: The binding affinities of the fusion proteins of Example 1 for the GLP-1 receptor were measured by ELISA. A fusion protein of the GLP-1 receptor and mouse Fc was expressed, and the fusion protein was referred to as GLP1R-muFc (SEQ ID NO: 3). GLP1R-muFc was diluted to 5 μg/mL and used to coat a 96-well plate; it was fixed at room temperature for 30 min. The plate was washed with PBS once, then blocked with 1% BSA at 37° C. for 30 min, and washed with 0.05% PBST20 three times. Test samples (4-fold serial dilutions, 10 μg/mL) were added at 50 μL/well. KN042 was used as a positive control. The plate was incubated at 37° C. for 1 h and washed with PBST five times. Mouse monoclonal HP6023 anti-human IgG4Fc-HRP (abcam, ab99817, 2000-fold diluted with 0.05% PBST20 containing 1% BSA) was added at 50 μL/well. The plate was incubated at 37° C. for 1 h and washed with PBST five times. To each well was added 50 μL of TMB, and color development was allowed for 3 min. To each well was added 50 μL of 1 M H2SO4 to stop the reaction. The OD values were measured on a microplate reader (Molecular Devices, SpectraMax M3). KN042 was used as a positive control.

B1: dulaglutide (Fc fusion)
chain: HGEGTFTSDVSSYLEEQAAKEFIAWLVKGGGGGGGSGGGGSGGGGSA[here human IgG4 Fc with S228P F234A L235A (EU numbers) without letters]
notes: also called KN042; GLP-1-Fc
- binding result: binds

B2: GM-FY (Fc fusion)
chain: B1 chain with F22Y
notes: also called F28Y
- binding result: binds

B3: GM-KRFY (Fc fusion)
chain: B1 chain with K20R, F22Y
notes: also called K26R-F28Y
- binding result: binds

B4: GM-KRQE (Fc fusion)
chain: B1 chain with Q17E, K20R
notes: also called K26R-Q23E
- binding result: binds

B5: GM-KRWYQE (Fc fusion)
chain: B1 chain with Q17E, K20R, W25Y
notes: also called W31Y-K26R-Q23E
- binding result: binds

B6: GM-KRWYQN (Fc fusion)
chain: B1 chain with Q17N, K20R, W25Y
notes: also called W31Y-K26R-Q23N
- binding result: binds

B7: GM-KRWYQS (Fc fusion)
chain: B1 chain with Q17S, K20R, W25Y
notes: also called W31Y-K26R-Q23S
- binding result: binds

B8: GM-KRWYQT (Fc fusion)
chain: B1 chain with Q17T, K20R, W25Y
notes: also called W31Y-K26R-Q23T
- binding result: binds

B9: GM-KRWYYA (Fc fusion)
chain: B1 chain with Y13A, K20R, W25Y
notes: also called W31Y-K26R-Y19A
- binding result: binds

B10: GM-KRWYYF (Fc fusion)
chain: B1 chain with Y13F, K20R, W25Y
notes: also called W31Y-K26R-Y19F
- binding result: binds

B11: GM-KRWYYI (Fc fusion)
chain: B1 chain with Y13I, K20R, W25Y
notes: also called W31Y-K26R-Y19I
- binding result: binds

B12: GM-KRWYYL (Fc fusion)
chain: B1 chain with Y13L, K20R, W25Y
notes: also called W31Y-K26R-Y19L
- binding result: binds

B13: GM-KRWYYS (Fc fusion)
chain: B1 chain with Y13S, K20R, W25Y
notes: also called W31Y-K26R-Y19S
- binding result: binds

B14: GM-KRWYYT (Fc fusion)
chain: B1 chain with Y13T, K20R, W25Y
notes: also called W31Y-K26R-Y19T
- binding result: binds

B15: GM-KRWYYV (Fc fusion)
chain: B1 chain with Y13V, K20R, W25Y
notes: also called W31Y-K26R-Y19V
- binding result: binds

B16: GM-KRYA (Fc fusion)
chain: B1 chain with Y13A, K20R
notes: also called K26R-Y19A
- binding result: binds

B17: GM-KRYI (Fc fusion)
chain: B1 chain with Y13I, K20R
notes: also called K26R-Y19I; K26R-Y191
- binding result: binds

B18: GM-KRYS (Fc fusion)
chain: B1 chain with Y13S, K20R
notes: also called K26R-Y19S
- binding result: binds

B19: GM-KRYV (Fc fusion)
chain: B1 chain with Y13V, K20R
notes: also called K26R-Y19V
- binding result: binds

B20: GM-QE (Fc fusion)
chain: B1 chain with Q17E
notes: also called Q23E
- binding result: binds

B21: GM-WA (Fc fusion)
chain: B1 chain with W25A
notes: also called W31A
- binding result: binds

B22: GM-WIFL (Fc fusion)
chain: B1 chain with F22L, W25I
notes: also called W31I, F28L
- binding result: binds

B23: GM-WL (Fc fusion)
chain: B1 chain with W25L
notes: also called W31L
- binding result: binds

B24: GM-WLFL (Fc fusion)
chain: B1 chain with F22L, W25L
notes: also called W31L, F28L
- binding result: binds

B25: GM-WY (Fc fusion)
chain: B1 chain with W25Y
notes: also called W31Y
- binding result: binds

B26: GM-WYFL (Fc fusion)
chain: B1 chain with F22L, W25Y
notes: also called W31Y, F28L
- binding result: binds

B27: GM-WYQE (Fc fusion)
chain: B1 chain with Q17E, W25Y
notes: also called W31Y-Q23E
- binding result: binds

B28: GM-WYYF (Fc fusion)
chain: B1 chain with Y13F, W25Y
notes: also called W31Y-Y19F
- binding result: binds

B29: GM-WYYI (Fc fusion)
chain: B1 chain with Y13I, W25Y
notes: also called W31Y-Y19I
- binding result: binds

B30: GM-WYYL (Fc fusion)
chain: B1 chain with Y13L, W25Y
notes: also called W31Y-Y19L
- binding result: binds

B31: GM-WYYS (Fc fusion)
chain: B1 chain with Y13S, W25Y
notes: also called W31Y-Y19S
- binding result: binds

B32: GM-WYYT (Fc fusion)
chain: B1 chain with Y13T, W25Y
notes: also called W31Y-Y19T
- binding result: binds

B33: GM-WYYV (Fc fusion)
chain: B1 chain with Y13V, W25Y
notes: also called W31Y-Y19V
- binding result: binds

B34: GM-YA (Fc fusion)
chain: B1 chain with Y13A
notes: also called Y19A
- binding result: binds

B35: GM-YI (Fc fusion)
chain: B1 chain with Y13I
notes: also called Y19I
- binding result: binds

B36: GM-YL (Fc fusion)
chain: B1 chain with Y13L
notes: also called Y19L
- binding result: binds

B37: GM-YS (Fc fusion)
chain: B1 chain with Y13S
notes: also called Y19S
- binding result: binds

B38: GM-YT (Fc fusion)
chain: B1 chain with Y13T
notes: also called Y19T
- binding result: binds

B39: GM-YV (Fc fusion)
chain: B1 chain with Y13V
notes: also called Y19V
- binding result: binds

Changes are numbered by the printed parent chain. Numbers in names are those of the source.
